The other results are listed elsewhere or left out. Cut-off read from the data, not from the text of the source: active = 3.2 or more and inactive = the rest. Most of these values are background signal.
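Note: displayed peptides selected on beads carrying the immobilized SH2 domain, with library peptides lacking any tyrosine serving as negative controls.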

The target of the first assay is SHP2 C-SH2 domain E139D. Put plainly: enrichment score (SH2-bound / input frequency) (ratio); bacterial display of known human phosphotyrosine sites (pTyr-Var adds point mutants) read by sequencing; higher = stronger binding; tyrosines were phosphorylated by kinases first. As to conditions: peptide library: Human pTyr.
With VQKFQVYYLGNVPVA [APBB1_HUMAN_547], the enrichment score is inactive: 2.03.
On the same count and under the same terms, to VLDVLEFYNSKKTSN [PAK1_HUMAN_131] belongs inactive: 0.776; to AKLLCDKYYMASPDL [PDK2_HUMAN_215], inactive: 1.99.
Take SDHMENVYGYLMKYT [OSB11_HUMAN_62]: the enrichment score was inactive: 1.43.
Still for that read-out and setting: under IEESRLLYEIQNRDE [OTUD4_HUMAN_460] stands inactive: 0.805.
The same measure, in the same setting: under VAQYDGAYKVSRGLW [ODPB_HUMAN_67] stands inactive: 0.783; under CTMSVDRYIAVCHPV [OPRM_HUMAN_168], inactive: 1.74.
The same measure, in the same setting: under THRQGHIYMEMNFTN [AP2B1_HUMAN_737] stands inactive: 1.77; under SREADQLYEEATRTS [P85B_HUMAN_464_YA], inactive: 0.718.
Consider DDQENCVYETVVLPL [PDCD4_HUMAN_152], for which the enrichment score is inactive: 1.3.
Same read-out and setting: to ITLQQAEYEFLSFVR [ORN_HUMAN_122] belongs inactive: 1.38; to MELQTYRYHGHSMSD [PDHA1_HUMAN_289], inactive: 0.511; to DSRGKDSYETSQLDD [OSTP_HUMAN_225], inactive: 0.987.
As to IGGSAPIYVKNILPR [PARD3_HUMAN_489], the enrichment score is inactive: 0.783.
Still for that read-out and setting: under DEDCYGNYDNLLSQF [PDPK1_HUMAN_376] stands inactive: 1.02; under SNTVKQKYLSFTPPE [PAK2_HUMAN_139], inactive: 0.838.
The same measure, in the same setting: under SEDDEDCYGNYDNLL [PDPK1_HUMAN_373] stands inactive: 1.15.
As to AIGSTLSYFGLAAVF [P2RX7_HUMAN_343_YA], the enrichment score was inactive: 2.29.

A further assay addresses SHP2 C-SH2 domain wild-type. The description is as above. Particulars: peptide library: Human pTyr.
For the molecule VQKFQVYYLGNVPVA [APBB1_HUMAN_547], the enrichment score is inactive: 1.92.
Same read-out and setting: to VLDVLEFYNSKKTSN [PAK1_HUMAN_131] belongs inactive: 0.718.
On the same count and under the same terms, to AKLLCDKYYMASPDL [PDK2_HUMAN_215] belongs inactive: 1.43; to SDHMENVYGYLMKYT [OSB11_HUMAN_62], inactive: 1.09.
IEESRLLYEIQNRDE [OTUD4_HUMAN_460]: the enrichment score is inactive: 0.76.
Still for that read-out and setting: under VAQYDGAYKVSRGLW [ODPB_HUMAN_67] stands inactive: 0.704; under CTMSVDRYIAVCHPV [OPRM_HUMAN_168], inactive: 1.45.
The same measure, in the same setting: under THRQGHIYMEMNFTN [AP2B1_HUMAN_737] stands inactive: 1.7; under SREADQLYEEATRTS [P85B_HUMAN_464_YA], inactive: 0.589.
Still for that read-out and setting: under DDQENCVYETVVLPL [PDCD4_HUMAN_152] stands inactive: 1.09; under ITLQQAEYEFLSFVR [ORN_HUMAN_122], inactive: 1.37.
For MELQTYRYHGHSMSD [PDHA1_HUMAN_289], the enrichment score was inactive: 0.461.
The same measure, in the same setting: under DSRGKDSYETSQLDD [OSTP_HUMAN_225] stands inactive: 0.928; under IGGSAPIYVKNILPR [PARD3_HUMAN_489], inactive: 0.733.
The same measure, in the same setting: under DEDCYGNYDNLLSQF [PDPK1_HUMAN_376] stands inactive: 0.759.
Turning to SNTVKQKYLSFTPPE [PAK2_HUMAN_139], the enrichment score is inactive: 0.72.
Same read-out and setting: to SEDDEDCYGNYDNLL [PDPK1_HUMAN_373] belongs inactive: 0.804; to AIGSTLSYFGLAAVF [P2RX7_HUMAN_343_YA], inactive: 2.5.

The next assay concerns the target SHP2 N-SH2 domain L43F. The description is as above. As to conditions: peptide library: Human pTyr.
On to VQKFQVYYLGNVPVA [APBB1_HUMAN_547], for which the enrichment score is inactive: 1.73.
The same measure, in the same setting: to VLDVLEFYNSKKTSN [PAK1_HUMAN_131] belongs inactive: 0.866.
Still for that read-out and setting: under AKLLCDKYYMASPDL [PDK2_HUMAN_215] stands inactive: 1.23; under SDHMENVYGYLMKYT [OSB11_HUMAN_62], inactive: 1.08; under IEESRLLYEIQNRDE [OTUD4_HUMAN_460], inactive: 0.999.
Same read-out and setting: to VAQYDGAYKVSRGLW [ODPB_HUMAN_67] belongs inactive: 0.667; to CTMSVDRYIAVCHPV [OPRM_HUMAN_168], inactive: 1.73.
As for THRQGHIYMEMNFTN [AP2B1_HUMAN_737], the enrichment score is inactive: 1.8.
Still for that read-out and setting: to SREADQLYEEATRTS [P85B_HUMAN_464_YA] belongs inactive: 0.764.
Turning to DDQENCVYETVVLPL [PDCD4_HUMAN_152], the enrichment score was inactive: 1.29.
The same measure, in the same setting: to ITLQQAEYEFLSFVR [ORN_HUMAN_122] belongs inactive: 1.09; to MELQTYRYHGHSMSD [PDHA1_HUMAN_289], inactive: 0.636; to DSRGKDSYETSQLDD [OSTP_HUMAN_225], inactive: 0.886.
Same read-out and setting: under IGGSAPIYVKNILPR [PARD3_HUMAN_489] stands inactive: 0.847; under DEDCYGNYDNLLSQF [PDPK1_HUMAN_376], inactive: 0.973.
Still for that read-out and setting: to SNTVKQKYLSFTPPE [PAK2_HUMAN_139] belongs inactive: 0.787; to SEDDEDCYGNYDNLL [PDPK1_HUMAN_373], inactive: 1.13.
Turning to AIGSTLSYFGLAAVF [P2RX7_HUMAN_343_YA], the enrichment score was inactive: 2.11.

A further assay deals with SHP2 N-SH2 domain T42A. Described as above. As to conditions: peptide library: Human pTyr.
As to VQKFQVYYLGNVPVA [APBB1_HUMAN_547], the enrichment score is inactive: 1.79.
As to VLDVLEFYNSKKTSN [PAK1_HUMAN_131], the enrichment score is inactive: 0.689.
On to AKLLCDKYYMASPDL [PDK2_HUMAN_215], for which the enrichment score is inactive: 1.28.
On the same count and under the same terms, under SDHMENVYGYLMKYT [OSB11_HUMAN_62] stands inactive: 1.01.
For IEESRLLYEIQNRDE [OTUD4_HUMAN_460], the enrichment score is inactive: 0.867.
With VAQYDGAYKVSRGLW [ODPB_HUMAN_67], the enrichment score is inactive: 0.722.
On the same count and under the same terms, to CTMSVDRYIAVCHPV [OPRM_HUMAN_168] belongs inactive: 1.55.
Still for that read-out and setting: to THRQGHIYMEMNFTN [AP2B1_HUMAN_737] belongs inactive: 1.95; to SREADQLYEEATRTS [P85B_HUMAN_464_YA], inactive: 0.69; to DDQENCVYETVVLPL [PDCD4_HUMAN_152], inactive: 1.15.
The same measure, in the same setting: under ITLQQAEYEFLSFVR [ORN_HUMAN_122] stands inactive: 1.21; under MELQTYRYHGHSMSD [PDHA1_HUMAN_289], inactive: 0.514; under DSRGKDSYETSQLDD [OSTP_HUMAN_225], inactive: 0.939.
On to IGGSAPIYVKNILPR [PARD3_HUMAN_489], for which the enrichment score is inactive: 0.922.
The same measure, in the same setting: under DEDCYGNYDNLLSQF [PDPK1_HUMAN_376] stands inactive: 0.881.
On the same count and under the same terms, to SNTVKQKYLSFTPPE [PAK2_HUMAN_139] belongs inactive: 0.716; to SEDDEDCYGNYDNLL [PDPK1_HUMAN_373], inactive: 0.934; to AIGSTLSYFGLAAVF [P2RX7_HUMAN_343_YA], inactive: 2.27.

Another assay deals with SHP2 N-SH2 domain T52S. The description is as above. As to conditions: peptide library: Human pTyr.
As for VQKFQVYYLGNVPVA [APBB1_HUMAN_547], the enrichment score is inactive: 1.95.
Regarding VLDVLEFYNSKKTSN [PAK1_HUMAN_131], the enrichment score was inactive: 1.16.
As for AKLLCDKYYMASPDL [PDK2_HUMAN_215], the enrichment score was inactive: 1.63.
As to SDHMENVYGYLMKYT [OSB11_HUMAN_62], the enrichment score is inactive: 1.11.
Same read-out and setting: to IEESRLLYEIQNRDE [OTUD4_HUMAN_460] belongs inactive: 0.916; to VAQYDGAYKVSRGLW [ODPB_HUMAN_67], inactive: 0.765.
On the same count and under the same terms, under CTMSVDRYIAVCHPV [OPRM_HUMAN_168] stands inactive: 1.93; under THRQGHIYMEMNFTN [AP2B1_HUMAN_737], inactive: 1.85; under SREADQLYEEATRTS [P85B_HUMAN_464_YA], inactive: 0.621.
Same read-out and setting: under DDQENCVYETVVLPL [PDCD4_HUMAN_152] stands inactive: 1.15; under ITLQQAEYEFLSFVR [ORN_HUMAN_122], inactive: 1.27.
MELQTYRYHGHSMSD [PDHA1_HUMAN_289]: the enrichment score is inactive: 0.683.
On the same count and under the same terms, under DSRGKDSYETSQLDD [OSTP_HUMAN_225] stands inactive: 1.15; under IGGSAPIYVKNILPR [PARD3_HUMAN_489], inactive: 1.02.
The same measure, in the same setting: under DEDCYGNYDNLLSQF [PDPK1_HUMAN_376] stands inactive: 1.06.
Same read-out and setting: under SNTVKQKYLSFTPPE [PAK2_HUMAN_139] stands inactive: 0.808; under SEDDEDCYGNYDNLL [PDPK1_HUMAN_373], inactive: 0.946.
As for AIGSTLSYFGLAAVF [P2RX7_HUMAN_343_YA], the enrichment score was inactive: 2.51.

The target in the next assay is SHP2 N-SH2 domain wild-type. Described as above. Particulars: peptide library: Human pTyr.
Consider VQKFQVYYLGNVPVA [APBB1_HUMAN_547], for which the enrichment score is inactive: 1.99.
On the same count and under the same terms, under VLDVLEFYNSKKTSN [PAK1_HUMAN_131] stands inactive: 1.18.
The same measure, in the same setting: to AKLLCDKYYMASPDL [PDK2_HUMAN_215] belongs inactive: 1.49.
On the same count and under the same terms, to SDHMENVYGYLMKYT [OSB11_HUMAN_62] belongs inactive: 1.77; to IEESRLLYEIQNRDE [OTUD4_HUMAN_460], inactive: 0.765; to VAQYDGAYKVSRGLW [ODPB_HUMAN_67], inactive: 0.846.
For the molecule CTMSVDRYIAVCHPV [OPRM_HUMAN_168], the enrichment score is inactive: 1.75.
The same measure, in the same setting: under THRQGHIYMEMNFTN [AP2B1_HUMAN_737] stands inactive: 2.18.
Same read-out and setting: to SREADQLYEEATRTS [P85B_HUMAN_464_YA] belongs inactive: 0.706.
The same measure, in the same setting: under DDQENCVYETVVLPL [PDCD4_HUMAN_152] stands inactive: 1.19; under ITLQQAEYEFLSFVR [ORN_HUMAN_122], inactive: 1.99; under MELQTYRYHGHSMSD [PDHA1_HUMAN_289], inactive: 0.667.
Take DSRGKDSYETSQLDD [OSTP_HUMAN_225]: the enrichment score is inactive: 1.07.
IGGSAPIYVKNILPR [PARD3_HUMAN_489]: the enrichment score was inactive: 0.905.
Same read-out and setting: to DEDCYGNYDNLLSQF [PDPK1_HUMAN_376] belongs inactive: 0.84; to SNTVKQKYLSFTPPE [PAK2_HUMAN_139], inactive: 1.19; to SEDDEDCYGNYDNLL [PDPK1_HUMAN_373], inactive: 1.09.
On to AIGSTLSYFGLAAVF [P2RX7_HUMAN_343_YA], for which the enrichment score was inactive: 3.04.

Values taken from the supplement of paper PMC10369915.
